{
  "source": "the supplement of paper PMC12217912",
  "parents": {"B1": {"name": "TEV protease; numbered along this chain (parent)", "chain": "MGESLFKGPRDYNPISSSICHLTNESDGHTTSLYGIGFGPFIITNKHLFRRNNGTLVVQSLHGVFKVKDTTTLQQHLVDGRDMIIIRMPKDFPPFPQKLKFREPQREERICLVTTNFQTKSMSSMVSDTSCTFPSGDGIFWKHWIQTKDGQCGSPLVSTRDGFIVGIHSASNFTNTNNYFTSVPKNFMELLTNQEAQQWVSGWRLNADSVLWGGHKVFMVKPEEPFQPVKEATQL"}},
  "note": "The list shows a part of the results. Sequences were assembled here from the parent chain. Values near 0.05 are background.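 Further: Bxb1 expression induced with 0.2% (w/v) L-rhamnose at OD600 near 0.5, cultures sampled hourly, flipped fraction per protease–substrate barcode pair counted by paired-end Illumina sequencing.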",
  "data": [
    {"variants_of": "B1", "test": "raw area under fraction-flipped curve 0-4 h after induction (AUC4h, not background-subtracted), DNA-recorder readout of cleavage of the substrate (dimensionless); higher = more cleavage of the substrate by the protease variant", "details": "temperature: 34 °C; time window: 0-4 h after rhamnose induction", "protocol": "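In vivo DNA recorder in E. coli TOP10(DE3) ΔrhaA at 34 °C. Each TEVp single-site mutant (parent TEVp 0) is paired with a single-site variant of the 7-mer TEVs (canonical ENLYFQ|S). The substrate sits between flexible linkers in a Bxb1-sfGFP-TEVs-SsrA fusion, so cleavage stabilises Bxb1 and speeds flipping of a recombination array, read by NGS. The value is the raw area under the fraction-flipped curve over 0-4 h after rhamnose induction (AUC4h), with ≥20 reads per time point. It is not background-subtracted; inactive controls average about 0.047.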", "values": [
      {"variant": "L235R", "area with substrate DNLYFQS": 0.086, "area with substrate KNLYFQS": 0.0475, "area with substrate SNLYFQS": 0.05},
      {"variant": "L235V", "area with substrate DNLYFQS": 0.0911, "area with substrate GNLYFQS": 0.0478, "area with substrate INLYFQS": 0.0646, "area with substrate MNLYFQS": 0.0844, "area with substrate NNLYFQS": 0.0584, "area with substrate PNLYFQS": 0.0578, "area with substrate SNLYFQS": 0.0715, "area with substrate TNLYFQS": 0.0618, "area with substrate WNLYFQS": 0.0616},
      {"variant": "L235D", "area with substrate DNLYFQS": 0.0899, "area with substrate FNLYFQS": 0.0541, "area with substrate INLYFQS": 0.0245, "area with substrate PNLYFQS": 0.068, "area with substrate RNLYFQS": 0.0622, "area with substrate TNLYFQS": 0.095},
      {"variant": "L5G", "area with substrate FNLYFQS": 0.0456, "area with substrate HNLYFQS": 0.074, "area with substrate KNLYFQS": 0.0777, "area with substrate LNLYFQS": 0.0844, "area with substrate MNLYFQS": 0.0728, "area with substrate PNLYFQS": 0.0723, "area with substrate RNLYFQS": 0.0944, "area with substrate SNLYFQS": 0.0503, "area with substrate VNLYFQS": 0.0696, "area with substrate WNLYFQS": 0.0563, "area with substrate YNLYFQS": 0.074},
      {"variant": "F218Q", "area with substrate DNLYFQS": 0.0604, "area with substrate GNLYFQS": 0.0513, "area with substrate INLYFQS": 0.0699, "area with substrate LNLYFQS": 0.047, "area with substrate MNLYFQS": 0.0449, "area with substrate PNLYFQS": 0.0632, "area with substrate SNLYFQS": 0.0547, "area with substrate TNLYFQS": 0.0608, "area with substrate VNLYFQS": 0.088, "area with substrate WNLYFQS": 0.0615, "area with substrate YNLYFQS": 0.0523},
      {"variant": "F218E", "area with substrate DNLYFQS": 0.0776, "area with substrate GNLYFQS": 0.0524, "area with substrate HNLYFQS": 0.0776, "area with substrate INLYFQS": 0.0597, "area with substrate KNLYFQS": 0.0519, "area with substrate LNLYFQS": 0.062, "area with substrate MNLYFQS": 0.0684, "area with substrate NNLYFQS": 0.0649, "area with substrate PNLYFQS": 0.0745, "area with substrate SNLYFQS": 0.079, "area with substrate TNLYFQS": 0.0567, "area with substrate VNLYFQS": 0.0625, "area with substrate WNLYFQS": 0.0548, "area with substrate YNLYFQS": 0.0365},
      {"variant": "V217M", "area with substrate DNLYFQS": 0.0442, "area with substrate FNLYFQS": 0.0372, "area with substrate GNLYFQS": 0.0639, "area with substrate HNLYFQS": 0.0564, "area with substrate KNLYFQS": 0.0623, "area with substrate MNLYFQS": 0.0515, "area with substrate NNLYFQS": 0.0013, "area with substrate SNLYFQS": 0.062, "area with substrate TNLYFQS": 0.0633, "area with substrate WNLYFQS": 0.0336},
      {"variant": "F49T", "area with substrate FNLYFQS": 0.0546, "area with substrate HNLYFQS": 0.073, "area with substrate INLYFQS": 0.0499, "area with substrate LNLYFQS": 0.057, "area with substrate PNLYFQS": 0.0517, "area with substrate QNLYFQS": 0.061, "area with substrate RNLYFQS": 0.0485, "area with substrate SNLYFQS": 0.0439, "area with substrate TNLYFQS": 0.0503, "area with substrate WNLYFQS": 0.0568, "area with substrate YNLYFQS": 0.0505},
      {"variant": "D27H", "area with substrate FNLYFQS": 0.0407, "area with substrate HNLYFQS": 0.0705, "area with substrate LNLYFQS": 0.0735, "area with substrate NNLYFQS": 0.0608, "area with substrate PNLYFQS": 0.0758, "area with substrate YNLYFQS": 0.0592},
      {"variant": "Y34D", "area with substrate FNLYFQS": 0.0749, "area with substrate INLYFQS": 0.035, "area with substrate KNLYFQS": 0.0551, "area with substrate MNLYFQS": 0.0611, "area with substrate NNLYFQS": 0.0628, "area with substrate PNLYFQS": 0.0553, "area with substrate TNLYFQS": 0.0771, "area with substrate WNLYFQS": 0.0495, "area with substrate YNLYFQS": 0.0668},
      {"variant": "P228T", "area with substrate DNLYFQS": 0.0826, "area with substrate HNLYFQS": 0.0786, "area with substrate KNLYFQS": 0.0743, "area with substrate PNLYFQS": 0.0665, "area with substrate SNLYFQS": 0.0578, "area with substrate WNLYFQS": 0.0627},
      {"variant": "K7M", "area with substrate FNLYFQS": 0.0611, "area with substrate HNLYFQS": 0.0582, "area with substrate KNLYFQS": 0.0648, "area with substrate NNLYFQS": 0.0671, "area with substrate PNLYFQS": 0.0484, "area with substrate SNLYFQS": 0.069, "area with substrate TNLYFQS": 0.0735, "area with substrate YNLYFQS": 0.0627},
      {"variant": "V220F", "area with substrate DNLYFQS": 0.0818, "area with substrate GNLYFQS": 0.082, "area with substrate LNLYFQS": 0.0586, "area with substrate MNLYFQS": 0.0717, "area with substrate NNLYFQS": 0.0551, "area with substrate PNLYFQS": 0.0774, "area with substrate TNLYFQS": 0.0559, "area with substrate VNLYFQS": 0.0605, "area with substrate WNLYFQS": 0.0598, "area with substrate YNLYFQS": 0.0636},
      {"variant": "V220K", "area with substrate DNLYFQS": 0.0758, "area with substrate FNLYFQS": 0.0559, "area with substrate HNLYFQS": 0.063, "area with substrate INLYFQS": 0.069, "area with substrate KNLYFQS": 0.0659, "area with substrate LNLYFQS": 0.0741, "area with substrate MNLYFQS": 0.0222, "area with substrate NNLYFQS": 0.0823, "area with substrate PNLYFQS": 0.101, "area with substrate TNLYFQS": 0.112, "area with substrate WNLYFQS": 0.0656, "area with substrate YNLYFQS": 0.056},
      {"variant": "F41E", "area with substrate FNLYFQS": 0.043, "area with substrate GNLYFQS": 0.0603, "area with substrate LNLYFQS": 0.0524, "area with substrate RNLYFQS": 0.0597, "area with substrate SNLYFQS": 0.0527, "area with substrate VNLYFQS": 0.0595, "area with substrate YNLYFQS": 0.0539},
      {"variant": "E223P", "area with substrate DNLYFQS": 0.0871, "area with substrate FNLYFQS": 0.1, "area with substrate GNLYFQS": 0.0577, "area with substrate HNLYFQS": 0.0537, "area with substrate QNLYFQS": 0.0699, "area with substrate RNLYFQS": 0.0528, "area with substrate TNLYFQS": 0.083, "area with substrate WNLYFQS": 0.0602, "area with substrate YNLYFQS": 0.0547},
      {"variant": "E231K", "area with substrate DNLYFQS": 0.0834, "area with substrate INLYFQS": 0.0783, "area with substrate LNLYFQS": 0.0759, "area with substrate NNLYFQS": 0.0389, "area with substrate PNLYFQS": 0.0671, "area with substrate TNLYFQS": 0.0692, "area with substrate VNLYFQS": 0.0887, "area with substrate WNLYFQS": 0.0873},
      {"variant": "E231Y", "area with substrate DNLYFQS": 0.0756, "area with substrate KNLYFQS": 0.0518, "area with substrate LNLYFQS": 0.06, "area with substrate MNLYFQS": 0.0565, "area with substrate RNLYFQS": 0.0716, "area with substrate SNLYFQS": 0.0643, "area with substrate TNLYFQS": 0.0353, "area with substrate VNLYFQS": 0.0605, "area with substrate WNLYFQS": 0.121},
      {"variant": "E231D", "area with substrate DNLYFQS": 0.0934, "area with substrate FNLYFQS": 0.0653, "area with substrate LNLYFQS": 0.061, "area with substrate MNLYFQS": 0.0612, "area with substrate PNLYFQS": 0.06, "area with substrate WNLYFQS": 0.0647}
    ]}
  ]
}
